Data from PMC4336329 (PLoS ONE, 2015).
In all, about 310,000 compounds went through this assay and about 2,200 (0.71%) showed an effect of 50% or more. Effects have a minus sign here. Some of the results follow.

Target: human ether-à-go-go-related gene (hERG) potassium channel (human, UniProt Q12809)
Assay: primary screen, population patch clamp on CHO cells stably expressing hERG

human ether-à-go-go-related gene (hERG) potassium channel, sequence (Q12809 whole entry, looked up): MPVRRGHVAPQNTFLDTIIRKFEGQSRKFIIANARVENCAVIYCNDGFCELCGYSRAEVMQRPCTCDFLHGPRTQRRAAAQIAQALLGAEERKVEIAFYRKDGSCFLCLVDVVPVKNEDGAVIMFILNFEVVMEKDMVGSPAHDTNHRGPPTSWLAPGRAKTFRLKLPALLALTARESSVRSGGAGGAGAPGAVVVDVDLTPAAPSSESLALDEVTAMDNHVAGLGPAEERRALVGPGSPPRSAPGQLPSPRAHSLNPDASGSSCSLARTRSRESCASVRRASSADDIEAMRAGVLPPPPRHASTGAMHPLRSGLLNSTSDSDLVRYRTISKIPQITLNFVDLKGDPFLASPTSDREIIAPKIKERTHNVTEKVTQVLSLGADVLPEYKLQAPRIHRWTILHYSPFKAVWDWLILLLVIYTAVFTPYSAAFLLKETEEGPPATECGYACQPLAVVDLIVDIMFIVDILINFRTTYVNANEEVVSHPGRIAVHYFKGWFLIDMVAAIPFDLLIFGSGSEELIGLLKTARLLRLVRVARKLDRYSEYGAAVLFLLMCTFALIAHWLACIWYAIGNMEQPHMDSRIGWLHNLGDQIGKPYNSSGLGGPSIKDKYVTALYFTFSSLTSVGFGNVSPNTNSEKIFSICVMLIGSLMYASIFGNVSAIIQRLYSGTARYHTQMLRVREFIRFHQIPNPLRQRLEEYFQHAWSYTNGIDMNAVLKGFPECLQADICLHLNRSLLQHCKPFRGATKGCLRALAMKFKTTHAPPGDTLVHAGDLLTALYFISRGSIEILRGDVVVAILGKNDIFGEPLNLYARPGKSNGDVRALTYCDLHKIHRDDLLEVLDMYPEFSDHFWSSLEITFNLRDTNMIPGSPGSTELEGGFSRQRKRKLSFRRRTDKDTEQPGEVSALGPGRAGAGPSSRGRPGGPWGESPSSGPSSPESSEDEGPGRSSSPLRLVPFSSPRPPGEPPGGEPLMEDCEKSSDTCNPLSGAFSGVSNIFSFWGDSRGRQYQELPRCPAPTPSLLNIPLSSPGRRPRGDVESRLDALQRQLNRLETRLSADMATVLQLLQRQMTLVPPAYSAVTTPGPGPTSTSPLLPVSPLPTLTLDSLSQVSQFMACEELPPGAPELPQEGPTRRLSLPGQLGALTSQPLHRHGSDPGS

SMILES	hERG current change (%, negative = inhibition) at 1uM [%]
COc1cc(CN2CCC(CCC(=O)NC3CC3)CC2)cc(Cl)c1OC	-13.9
CC(C)n1c(=O)c(C=Nc2cccc([N+](=O)[O-])c2)c(O)n(CCc2ccccc2)c1=O	-0.174
CC(=O)N1[C@@H]2CC3C4CC=C5C[C@@H](O)CC[C@]5(C)C4CC[C@]3(C)[C@@]21C(C)=O (stereo partly shown)	0.456
CSc1cc(-c2ccc(Cl)cc2)c(C(=O)NN)s1	7.43
COc1ccc(OC)c(Nc2nc(-c3sc(NC(=O)C(C)(C)C)nc3C)cs2)c1	19.8
Cc1csc(NC(=O)C(C)N2C(=O)c3ccccc3S2(=O)=O)n1 (stereo not shown)	10
CN(C)/C=C(/C(=O)c1ccc(Cl)c(Cl)c1)S(C)(=O)=O	11.9
Cc1cc(C)c(C)c(S(=O)(=O)NCc2cccnc2)c1C	9.63
CN(Cc1nc2ccccc2c(=O)[nH]1)C(=O)c1cc(C2CC2)nn1-c1ccccc1	-18.9
CCOc1ccccc1CNC(=O)CCCn1ncn2c(cc3occc32)c1=O	6.59
Cc1nnc(SCc2nnc(-c3cccs3)o2)n1Cc1ccccc1	12.1
COCNc1nc(OCC#N)nc(N(C)C)n1	-2.97
COc1cc(S(=O)(=O)Nc2cccc3cn[nH]c23)c(OC)cc1Cl	7.71
CC/S(C)=N/S(=O)(=O)c1ccc(C)cc1 (stereo not shown)	10.4
O=C(NNC(=S)NC1CCCCC1)c1ccc2c(c1)OCO2	16.2
Cc1ccccc1C(=O)NC(CC(C)C)C(=O)N1CCN(c2ccccc2)CC1 (stereo not shown)	7.64
C/C(=N\O)C(=O)C(CN1CCCCC1)CN1CCCCC1	12.5
Cc1ccc(NC(=O)Nc2ccc(Cl)c(Cl)c2)nc1	14.6
COC(=O)CNC(c1ccccc1)c1cc(Br)ccc1NC(=O)OCc1ccccc1 (stereo not shown)	14.3
CCN(CC)S(=O)(=O)c1ccc2oc(SCC3CN=C(c4ccc(OC)cc4)S3)nc2c1 (stereo not shown)	14.2
CCn1c(-c2ccoc2C)n[nH]c1=S	8.68
COc1ccc(-c2noc(CCC(=O)O)n2)cc1	5.7
CCN(C(=O)COC(=O)Cc1c[nH]c2ccccc12)C1CCS(=O)(=O)C1 (stereo not shown)	14.6

SMILES	hERG current change (%, negative = inhibition) at 1uM [%]
COc1ccc(C(=O)CC2OC(=O)c3ccccc32)cc1OC (stereo not shown)	-2.06
Cc1nc(SCC(=O)Nc2cccnc2Cl)nc(C)c1C	5.02
Cc1cc(C(=O)CSc2nnc(-c3cccnc3)n2-c2ccccc2)c(C)n1CC1CCCO1 (stereo not shown)	8.03
O=C(OCc1c(Cl)cccc1Cl)c1ccccn1	4.21
CCC(C)(C)NC(=O)C(c1cccn1C)N(Cc1ccc(C)cc1)C(=O)Cn1nnc2ccccc21 (stereo not shown)	9.85
O=C(NCc1ccccc1F)C1CCCN1C(=O)NCc1ccccc1 (stereo not shown)	13.4
COC(=O)C1=C(c2cccc(OCc3ccccc3)c2)C[C@@H]2CC[C@H]1N2C(=O)NCc1ccc(C(C)(C)C)cc1	11.6
O=[N+]([O-])c1ccccc1Oc1ccc(S(=O)(=O)N2CCOCC2)cc1	7.24
CC(C)=CC1C(C(=O)Nc2ccc(Br)cn2)C1(C)C (stereo not shown)	-6
COc1ccc(S(=O)(=O)Nc2nnc(C(C)(C)C)s2)cc1	15.8
Cc1noc(C)c1COc1ccc(C(=O)N2CCC(C)CC2)cc1	2.95
CCC(=O)NC(NCC1CCCO1)C(Cl)(Cl)Cl (stereo not shown)	10.3
O=C(CCCCn1c(=S)[nH]c2ccsc2c1=O)NCc1ccco1	5.36
COc1ccccc1C1CC(c2cccs2)=Nc2ccccc2S1 (stereo not shown)	13
COc1ccccc1NS(=O)(=O)c1ccc(C)c(C(=O)NCC2(N(C)C)CCCCC2)c1	-2.66
O=C(CN(C(=O)c1csnn1)c1ccc(Cl)cc1)NCc1ccc2c(c1)OCO2	22.9
NC(=O)N1OCC2COc3ccc4ccccc4c3C21 (stereo not shown)	-19
Cl.O=C(OCCN1CCCCC1)c1cc2ccccc2o1	5.08
Cc1ccc(NC(=O)CSCC(=O)N2c3ccccc3CCc3ccccc32)cc1	11.2
COc1ccc(NC(=O)CC2Oc3ccccc3NC2=O)c(OC)c1 (stereo not shown)	19
Cc1oc(CC(C)C)cc1C(=O)NCCCC(=O)O	12.4
Cc1ccc(C2=NS(=O)(=O)N(C)C(C(=O)NCc3cccs3)=C2)cc1	-5.89
C/C=C/C(=O)Nc1nnc(C2CCCCC2)s1	7.19

SMILES	hERG current change (%, negative = inhibition) at 1uM [%]
O=[N+]([O-])c1ccc(/C=N/Nc2cc(Cl)nc(-c3ccccc3)n2)cc1	-0.0273
O=C(Nc1c(F)cccc1F)c1cnc(N2CCN(c3ccccn3)CC2)c2ccccc12	1.75
CCN1CCN(C(CNS(=O)(=O)c2ccccc2)c2ccccc2)CC1 (stereo not shown)	-3.2
CCCCSc1nc(O)cc(=O)n1CC	3.13
CCOC(=O)C1=C(C)N=c2s/c(=C/c3ccco3)c(=O)n2C1c1cccc(OC)c1 (stereo not shown)	11.9
Cc1ccc(NC(=O)CN(C)CC(=O)Nc2ccc(N3CCOCC3)cc2)c([N+](=O)[O-])c1	-2.38
C/C(=N\NC(=O)c1nnn(-c2nonc2N)c1C)c1ccc(OCc2ccccc2)cc1	16.2
CN(C)CCOC(=O)COc1ccc(Cl)cc1.Cl	5.74
CC(=O)Nc1nc(-c2ccc3c(c2)OCO3)cs1	7.16
O=C(CSc1ccccc1)N1CCN(C(=O)c2ccco2)CC1	6.86
O=C(Nc1ccc(N2CCN(C(=O)c3cccs3)CC2)cc1)c1ccco1	17.4
O=C(N/N=C/c1cccnc1)C1CCCCC1	14.9
Cc1ccc(NC(=O)C2(N3CCC3=O)CCCCC2)cc1	-2.83
O=C(Cn1cnc2c(nnn2Cc2ccc(Cl)cc2)c1=O)OCc1ccccc1	7.62
COc1cccc(CNC(=O)c2cnc(-c3ccccn3)nc2C(F)(F)F)c1	8.42
Cc1cccc(C)c1NC(=O)C(C)N1CCCCC1 (stereo not shown)	9.5
COc1ccc(NC(=O)c2cc([N+](=O)[O-])ccc2N2CCNCC2)cc1	-4.04
O=S(=O)(NCc1ccccc1)c1cccc2cccnc12	0.579
CCOC(=O)N1CCC(NC(=O)CC2C(=O)NCCN2Cc2cccc(F)c2F)CC1 (stereo not shown)	-11.3
O=[N+]([O-])C(=C1SCCS1)C(=C(Cl)Cl)N1CCCCC1	13.1
CCCCOc1ccc(CNC(=S)N/N=C/c2ccc(OC)c(OC)c2)cc1	9.98
CC1OC(Nc2ccc(OC(F)(F)F)cc2)C(O)C(O)C1O (stereo not shown)	9.4
O=[N+]([O-])c1ccc2nc(N3CCCC3)sc2c1	23

SMILES	hERG current change (%, negative = inhibition) at 1uM [%]
Cc1occc1C(=O)Nc1ccccc1C(=O)O	6.93
Cc1ccc(C2=NCCNC2=O)c(C)c1	5.55
Cc1cc(C)c2cc(C(c3nnnn3CC3CCCO3)N3CCN4CCCC4C3)c(=O)[nH]c2c1 (stereo not shown)	13.2
O=C(CN1CCCC1)Nc1ccc(Oc2ccc(NC(=O)CN3CCCC3)cc2)cc1	13.5
N#CCC(=O)N/N=C/c1ccc(OC2CSC2)cc1	20.2
COC(=O)c1ccccc1S(=O)(=O)NNC(=O)c1ccccc1-n1cccc1	17.4
COc1ccc(S(=O)(=O)NC(C)(C)C)cc1-c1nnc2c3ccccc3c(C)nn12	2.51
Cc1cc(=O)n2c(n1)NC(=NCc1ccccc1)NC2c1ccccc1 (stereo not shown)	13.8
CC(C)(C)c1ccc(-c2nnc3sc(-c4ccncc4)nn23)cc1	1.55
CCN(CC)C(=O)CSc1nnc([C@H](CCSC)NC(=O)OC(C)(C)C)o1	1.61
Cc1ccccc1NC(=S)NCCC(c1ccccc1)c1ccccc1	5.52
Cl.N=c1sccn1CC(=O)Nc1ccccc1Cc1ccccc1	-11.4
Fc1ccc2c(c1)Sc1ccc(Cl)cc1CC2N1CCN(CCC2OCCO2)CC1 (stereo not shown)	5.43
O=C(c1ccc(Cl)c(Cl)c1)N(Cc1ccco1)c1ccc(O)cc1	12
O=S(=O)(c1ccc(NC(=S)NCc2ccco2)cc1)N1CCCCC1	13.4
O=C1CC(N2CCN(C(c3ccccc3)c3ccccc3)CC2)C(=O)N1Cc1ccc(N2CCCC2=O)cc1 (stereo not shown)	9.25
O=C(N/N=C/C1CC2CCC1C2)c1ccc2c(c1)OCO2 (stereo not shown)	0.955
CC(=O)NS(=O)(=O)c1ccc(N=NN2CCCCC2)cc1	1.53
Cc1nc2ccc(Cl)cc2c(-c2ccccc2)c1C(=O)N(C)C.Cl	9.56
CCOC(=O)CSc1[nH]c(=O)cc(C)c1C#N	8.55
O=C(NCc1cccnc1)C1CCC(c2ccc(Cl)cc2)CC1 (stereo not shown)	9.17
O=C(NC1CCCC1)c1ccc(S(=O)(=O)N2CCOCC2)cc1	6.01
